Structures can show the parent of a compound that is named as a salt. ± gives the standard deviation of the averaged measurements. The list shows a part of the results.
Columns and labels:
Conditions in all cases: priming compound concentration 100 µM
[1] = system: hAMSC donor 1; experiment: Hoechst total cell count ratio vs vehicle control; higher = more cells (less toxicity)
[2] = system: hAMSC donor 2; experiment: as above
[3] = system: hAMSC donor 1; experiment: transgenic luciferase activity (RLU/mg protein) fold change vs vehicle control (ratio); higher = more transgene expression
[4] = system: hAMSC donor 2; experiment: as above
[5] = system: hAMSC donor 1; experiment: transfection efficiency (EGFP+ cells / Hoechst count) fold change vs vehicle control (ratio); hAMSC are human adipose-derived mesenchymal stem cells given an EGFP-luciferase plasmid by lipofection; higher = enhanced transfection
[6] = system: hAMSC donor 2; experiment: as above
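Wherever Hoechst total cell count ratio vs vehicle control is given: compound added 30 min before Lipofectamine 3000 lipoplex delivery, triplicate-well means expressed against DMSO vehicle control wells of the same 96-well plate.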
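Wherever transfection efficiency (EGFP+ cells / Hoechst count) fold change vs vehicle control is given: compounds added 30 min before Lipofectamine 3000 lipoplex transfection, triplicate means relative to DMSO vehicle wells on the same plate, luciferase RLU normalized to BCA total protein.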
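Wherever transgenic luciferase activity (RLU/mg protein) fold change vs vehicle control is given: compounds in DMSO added 30 min before Lipofectamine 3000 transfection of pEGFP-Luc in 96-well plates, values are means of triplicate wells over DMSO vehicle wells on the same plate.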

Compound | Hoechst total cell count ratio [1] | Hoechst total cell count ratio [2] | transgenic luciferase activity [3] | transgenic luciferase activity [4] | transfection efficiency [5] | transfection efficiency [6]
CC(=O)O[C@H]1C[C@@H]2CC[C@@H]3[C@H](CC[C@@]4(C)[C@H]3C[C@H]([N+]3(C)CCCCC3)[C@@H]4OC(C)=O)[C@@]2(C)C[C@@H]1[N+]1(C)CCCCC1 [Pancuronium dibromide] | 1.25 ± 0.098 | 1.09 ± 0.2 | 0.811 ± 0.12 | 0.876 ± 0.26 | 1.04 ± 0.31 | 1.16 ± 0.13
NC(=O)C[S+]([O-])C(c1ccccc1)c1ccccc1 (stereo unspecified) [Modafinil] | 1.55 ± 0.17 | 1.07 ± 0.072 | 2.93 ± 0.63 | 2.06 ± 0.13 | 1.39 ± 0.23 | 1.55 ± 0.24
CN[C@@H]1C[C@@H](c2ccc(Cl)c(Cl)c2)c2ccccc21 [Indatraline hydrochloride] | 0.0543 ± 0.018 | 0.0253 ± 0.0021 | 0.00123 ± 0.00052 | 0.000712 ± 0.00028 | 0.0852 ± 0.15 | 0.0976 ± 0.17
c1ccc2c(c1)Nc1ccccc1S2 [Phenothiazine] | 1.02 ± 0.028 | 1.25 ± 0.39 | 1.91 ± 0.21 | 1.44 ± 0.15 | 1.52 ± 0.17 | 1.52 ± 0.35
CN1[C@@H]2CC[C@H]1C[C@@H](OC(=O)C(CO)c1ccccc1)C2 (stereo partly specified) [Atropine] | 1.44 ± 0.073 | 1.3 ± 0.28 | 0.514 ± 0.084 | 0.879 ± 0.32 | 0.823 ± 0.096 | 0.977 ± 0.28
C[C@]12CC[C@H]3[C@@H](CCC4=CC(=O)CC[C@@H]43)[C@@H]1CC[C@@H]2O [19-Nortestosterone] | 0.987 ± 0.091 | 1.02 ± 0.13 | 0.681 ± 0.2 | 0.901 ± 0.079 | 0.892 ± 0.38 | 1.1 ± 0.19
CC(C)c1cccc(C(C)C)c1O [Propofol] | 1.13 ± 0.18 | 1.19 ± 0.067 | 0.577 ± 0.13 | 1.06 ± 0.097 | 0.827 ± 0.13 | 1.03 ± 0.19
N=C(NCc1ccc(Cl)cc1)SCCCc1c[nH]cn1 [Clobenpropit] | 0.984 ± 0.066 | 1.2 ± 0.34 | 0.918 ± 0.61 | 0.61 ± 0.17 | 1.06 ± 0.54 | 1.11 ± 0.28
CN1C(=O)CN=C(c2ccccc2)c2cc(Cl)ccc21 [Diazepam] | 1.15 ± 0.047 | 1.02 ± 0.16 | 2.91 ± 1.4 | 1.81 ± 0.65 | 1.65 ± 0.36 | 1.85 ± 0.73
CC(NC(C)(C)C)C(=O)c1cccc(Cl)c1 (stereo unspecified) [Bupropion hydrochloride] | 1.3 ± 0.27 | 1.18 ± 0.17 | 0.85 ± 0.24 | 0.596 ± 0.058 | 0.695 ± 0.25 | 0.701 ± 0.16
CCCCCCCCCOc1ccc2[nH]cc(CCN)c2c1 [5-Nonyloxytryptamine hydrochloride] | 0.208 ± 0.13 | 0.357 ± 0.037 | 0.0145 ± 0.0072 | 0.000306 ± 5.5e-05 | 1.09 ± 0.43 | 0.3 ± 0.17
C#CCN(C)[C@H](C)Cc1ccccc1 [Selegiline hydrochloride] | 1.11 ± 0.04 | 1.34 ± 0.13 | 0.193 ± 0.094 | 0.609 ± 0.14 | 1.01 ± 0.15 | 0.82 ± 0.13
FC(F)(F)c1cccc(N2CCNCC2)c1 [TFMPP hydrochloride] | 0.987 ± 0.084 | 1.19 ± 0.12 | 0.197 ± 0.05 | 1.02 ± 0.09 | 0.896 ± 0.14 | 1.23 ± 0.091
O=C(O)C(Cl)Cl [Dichloroacetic acid] | 1.11 ± 0.11 | 1.08 ± 0.076 | 0.571 ± 0.21 | 0.858 ± 0.14 | 1.16 ± 0.37 | 1.01 ± 0.046
CN1C(=O)COc2c(C(=O)NC3CN4CCC3CC4)cc(Cl)cc21 (stereo unspecified) [Azasetron hydrochloride] | 1.5 ± 0.28 | 1.27 ± 0.12 | 1.58 ± 1.3 | 1.11 ± 0.47 | 1.28 ± 0.19 | 0.959 ± 0.29
CN1CC[C@@H](c2ccc(F)cc2)[C@H](COc2ccc3c(c2)OCO3)C1 [N-Methylparoxetine] | 0.136 ± 0.075 | 0.0927 ± 0.041 | 0.0176 ± 0.011 |  | 0.0512 ± 0.089 | 0.224 ± 0.12
C[C@]12CC[C@H](O)CC1=CC[C@@H]1[C@@H]2CC[C@@]2(C)[C@H]1CC[C@]2(C)O [Methylandrostenediol] | 1.12 ± 0.11 | 1.32 ± 0.052 | 2.95 ± 2 | 1.03 ± 0.2 | 0.963 ± 0.44 | 0.903 ± 0.17
C[C@]12CC[C@H](O)CC1=CC[C@@H]1[C@@H]2CC[C@]2(C)C(=O)CC[C@@H]12 [Dehydroepiandrosterone] | 1.42 ± 0.3 | 0.95 ± 0.11 | 0.243 ± 0.24 | 0.109 ± 0.043 | 1.22 ± 0.12 | 0.983 ± 0.26
COc1ccc2c(c1)[C@]13CCCC[C@@H]1[C@H](C2)N(C)CC3 [Dextromethorphan hydrobromide, monohydrate] | 1.31 ± 0.47 | 1.16 ± 0.16 | 0.227 ± 0.007 | 0.374 ± 0.014 | 1.17 ± 0.12 | 0.6 ± 0.1
CCCN1C[C@H](CSC)C[C@@H]2c3cccc4[nH]cc(c34)C[C@H]21 [Pergolide mesylate] | 1.32 ± 0.2 | 1.07 ± 0.076 | 0.687 ± 0.034 | 0.666 ± 0.046 | 1.61 ± 0.82 | 0.975 ± 0.17
c1cncc([C@@H]2CCCN2)c1 [Nornicotine] | 1.67 ± 0.28 | 1.02 ± 0.1 | 1.59 ± 0.63 | 0.9378 ± 0.0053 | 0.961 ± 0.13 | 1.15 ± 0.081

Compound | Hoechst total cell count ratio [1] | Hoechst total cell count ratio [2] | transgenic luciferase activity [3] | transgenic luciferase activity [4] | transfection efficiency [5] | transfection efficiency [6]
CC(C)CC(N(C)C)C1(c2ccc(Cl)cc2)CCC1 (stereo unspecified) [Sibutramine] | 1.23 ± 0.086 | 1.83 ± 0.17 | 0.852 ± 0.32 | 0.602 ± 0.13 | 0.603 ± 0.13 | 0.658 ± 0.097
C[N+]1(C)CCCC(OC(=O)C(O)(c2ccccc2)c2ccccc2)C1 (stereo unspecified) [Mepenzolate bromide] | 1.37 ± 0.15 | 1.17 ± 0.38 | 0.525 ± 0.46 |  | 1.13 ± 0.13 | 1.14 ± 0.22
COc1cccc(C2(O)CCCCC2CN(C)C)c1 (stereo unspecified) [Tramadol hydrochloride] | 1.22 ± 0.071 | 1.4 ± 0.36 | 0.472 ± 0.1 | 1.05 ± 0.34 | 0.839 ± 0.27 | 1.18 ± 0.11
CCCC(C)(COC(N)=O)COC(=O)NC(C)C (stereo unspecified) [Carisoprodol] | 1.45 ± 0.18 | 1.61 ± 0.2 | 0.716 ± 0.44 |  | 1.04 ± 0.19 | 1.03 ± 0.22
CNC1=Nc2ccc(Cl)cc2C(c2ccccc2)=[N+]([O-])C1 [Chlordiazepoxide] | 1.02 ± 0.016 | 1.08 ± 0.095 | 0.87 ± 0.2 | 0.91 ± 0.013 | 1.28 ± 0.23 | 0.778 ± 0.063
COc1cc(N)c(Cl)cc1C(=O)NC1CN2CCC1CC2 (stereo unspecified) [Zacopride hydrochloride hydrate] | 1.19 ± 0.073 | 1.56 ± 0.1 | 0.681 ± 0.28 | 0.889 ± 0.23 | 0.657 ± 0.23 | 0.788 ± 0.1
c1ccc2c3c([nH]c2c1)CNCC3 [Tryptoline] | 1.6 ± 0.11 | 1.09 ± 0.026 | 1.68 ± 0.3 | 1.1 ± 0.29 | 0.56 ± 0.084 | 0.786 ± 0.11
CCN(CC)CCOC(=O)C(O)(c1ccccc1)c1ccccc1 [Benactyzine hydrochloride] | 1.03 ± 0.14 | 1.22 ± 0.069 | 1.14 ± 0.93 | 0.766 ± 0.23 | 1.22 ± 0.39 | 0.999 ± 0.21
Cc1nnc2n1-c1ccc(Cl)cc1C(c1ccccc1)=NC2 [Alprazolam] | 1.12 ± 0.093 | 1.12 ± 0.054 | 1.23 ± 1.1 | 1.14 ± 0.31 | 1.66 ± 0.16 | 1.44 ± 0.09
Oc1ccc2c3c1O[C@H]1c4[nH]c5ccccc5c4C[C@@]4(O)[C@@H](C2)N(CC2CC2)CC[C@]314 [Naltrindole hydrochloride hydrate] | 0.614 ± 0.052 | 0.359 ± 0.015 | 0.199 ± 0.024 | 0.413 ± 0.1 | 0.707 ± 0.31 | 1.06 ± 0.33
COC(=O)N1CCN(C(=O)Cc2ccc(Cl)c(Cl)c2)C(CN2CCCC2)C1 (stereo unspecified) | 1.47 ± 0.31 | 1.09 ± 0.12 | 0.556 ± 0.079 | 0.983 ± 0.035 | 0.999 ± 0.14 | 0.914 ± 0.09
O=C1Nc2ccc(Cl)cc2C(c2ccccc2Cl)=NC1O (stereo unspecified) [Lorazepam] | 1.18 ± 0.073 | 2 ± 0.13 | 1.47 ± 0.38 | 1.79 ± 0.18 | 1.27 ± 0.28 | 0.715 ± 0.01
Oc1cc(Cl)ccc1Oc1ccc(Cl)cc1Cl [Triclosan] | 1.32 ± 0.32 | 0.454 ± 0.1 | 0.297 ± 0.089 |  | 1.1 ± 0.18 | 1.07 ± 0.43
Cc1ncc2n1-c1ccc(Cl)cc1C(c1ccccc1F)=NC2 [Midazolam hydrochloride] | 1.4 ± 0.12 | 1.18 ± 0.077 | 1.04 ± 0.047 | 1.61 ± 0.39 | 1.05 ± 0.17 | 1.2 ± 0.4
CC(C)N(CCC(C(N)=O)(c1ccccc1)c1ccccn1)C(C)C (stereo unspecified) [Disopyramide phosphate] | 1.15 ± 0.23 | 1.3 ± 0.15 | 1.45 ± 1 | 1.49 ± 0.76 | 1.28 ± 0.18 | 1.38 ± 0.16
Oc1cc2c(cc1O)[C@H]1c3ccccc3CN[C@@H]1CC2 (racemic) [Dihydrexidine hydrochloride] | 2 ± 0.23 | 1.34 ± 0.084 | 0.347 ± 0.1 | 0.66 ± 0.16 | 0.661 ± 0.083 | 0.6 ± 0.079
O=C1CC[C@@]2(O)[C@H]3Cc4ccc(O)c5c4[C@@]2(CCN3CC2CC2)[C@H]1O5 [Naltrexone hydrochloride] | 1.27 ± 0.14 | 1.55 ± 0.18 | 0.591 ± 0.23 |  | 0.708 ± 0.19 | 0.749 ± 0.27
C[C@]12CCC(=O)C=C1CC[C@@H]1[C@@H]2CC[C@@]2(C)[C@H]1CC[C@]2(C)O [Methyltestosterone] | 1.19 ± 0.093 | 0.933 ± 0.059 | 1.49 ± 1.6 | 0.766 ± 0.22 | 1.09 ± 0.16 | 1.26 ± 0.24
C[C@]12Cc3c[nH]nc3C[C@@H]1CC[C@@H]1[C@@H]2CC[C@@]2(C)[C@H]1CC[C@]2(C)O [Stanozolol] | 1.14 ± 0.092 | 0.862 ± 0.12 | 0.776 ± 0.27 | 1.49 ± 0.071 | 2.19 ± 0.73 | 2.05 ± 0.34
COc1cc2c(cc1OC)[C@@]13CCN4CC5=CCO[C@H]6CC(=O)N2[C@H]1[C@H]6[C@H]5C[C@H]43 [Brucine] | 1.31 ± 0.24 | 1.22 ± 0.2 | 1.71 ± 1.4 | 0.694 ± 0.55 | 0.944 ± 0.25 | 0.805 ± 0.14

Reference: the supplement of paper PMC7238544
